# Assay results reported in the supplement of paper PMC12632987.
# Over roughly 1,800 sequences, “median log2 fold change of GCK-ALFA target abundance (FLAG IP / Myc IP barcode read proportion)” has its median near 0.14; the lowest 2% begin near -0.84. The list shows a part of the results.
# T1: TRAF2, Q12933
# T1 chain: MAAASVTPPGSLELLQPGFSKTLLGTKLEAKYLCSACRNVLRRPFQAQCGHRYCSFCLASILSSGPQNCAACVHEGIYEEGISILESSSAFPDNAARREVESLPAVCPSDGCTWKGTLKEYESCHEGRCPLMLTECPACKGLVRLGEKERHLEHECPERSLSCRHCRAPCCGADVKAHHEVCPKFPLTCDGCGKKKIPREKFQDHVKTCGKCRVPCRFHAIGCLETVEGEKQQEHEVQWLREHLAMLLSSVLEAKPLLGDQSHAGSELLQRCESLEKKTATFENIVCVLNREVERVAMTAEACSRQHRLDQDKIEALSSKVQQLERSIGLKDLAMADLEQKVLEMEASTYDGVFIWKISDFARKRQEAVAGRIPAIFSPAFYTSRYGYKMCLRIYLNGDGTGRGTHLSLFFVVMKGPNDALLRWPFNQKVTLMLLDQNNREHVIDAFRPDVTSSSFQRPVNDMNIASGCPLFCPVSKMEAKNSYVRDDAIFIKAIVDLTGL
# B1: traf2_out_16_177_1457 (protein)
# chain: DLAKVMDRLVILSYIRRAALRIVADDSPEAEEYLRKAREEAEAAGDEEGLALIERVRALAAEDTPEARAELRALAAEAQREAQRLADEAEALIKARAAAE
# B2: traf2_out_6_166_2476 (protein)
# chain: DEEILKRIREVVKEFSKYSAEDIIEAFEIIAKERSDERALLARQLASGVRQAQKAGLPIETILSAMADGWLALGVDPELILELLEEILKKVKEIQKEKEE
# B3: traf2_out_15_48_1342 (protein)
# chain: SVEELRKVASEIADEADATRDEVAAELRAIKPQASPEVAAQLDAIIAALAAGASLRDVLAQIQTVIPQASPEVAAQLQALADKIQATIKRMSKRMDEVLK
# B4: traf2_out_16_104_1390 (protein)
# chain: GAEKEKRFEKIKKELLEIAEKAGKIANEAYKLYEKASPEEKKKLSDLLVEASKLRREALLAAQEVEEWLKTGGDLEEAEKKLKKLKEELKKIEKKLKELK
# B5: traf2_out_11_131_662 (protein)
# chain: MDAVAMAESVAERVAERLALAATASPAERTRIARHSLDSIEALAEYLKSHVDKMTKEDIERAAKILRAAADAVLAADPAVAAEAAEVRKAIEELLKAAEE
# B6: traf2_out_18_3_1913 (protein)
# chain: SEEERKEISEKIDEIVDEATAKAREALDRGAAEHPEFKAEFERLRADLEAGAGPFGILDALAELFREAGDEEEAEEIEKFLREKRKELQELVDKYEELLK
# B7: traf2_out_18_167_1867 (protein)
# chain: SSELEEKYNEKSDKLVELSEIRRTLRLALEALKESRELARKIIEEALKKLPDSEVLKEALEKFETLSDEEIRAFLESTAEQLQKEMNKAYKELEKLRKEL
# B8: traf2_out_20_38_2017 (protein)
# chain: SEEEEEEEKEEKLIEHAKEAYDEAEKWVEELKAAGKTVEEIAEEAKALIRELLTAHGLEEEAEELIADVDRVLDSPDAERLIVRILARARTLVFQKELQK
# B9: traf2_out_16_62_1470 (protein)
# chain: EEEKKKLEEKADELIDTQAELRAAVTRFRLGEDVEGALATIAALAKKYGPTFQALLDAMRAALADPATHDEALAKADELAVEARTQLGKEALKAEEERKK
# B10: traf2_out_18_117_1791 (protein)
# chain: SEREELIERLEEIAERLGRAASELGTAVLENYDKLTPEEKSAAMDVLADLTAVRRRALELIHRIRTEDVPVEEARRELEELEKEAEAAIARAEARIAAIK
# B11: traf2_out_14_17_1298 (protein)
# chain: SVLEKLKEILELAKELLEEFPELRLSLTRLVRLAESAIVLAEMYEEDPSYKPLAIEGVRQLLREARELAEELEERSEEGREKAEEIARRAEEIIKELEEE
# B12: traf2_out_17_162_1568 (protein)
# chain: EELKKKLEELKKELEELKKELEEFKKKLPELPKMSYEELTDLLVEVSELKRRALELAEELKKLGKELGSEELEKLVKEAEEIAEELQRIANEIYKEIEKK
# B13: traf2_out_16_177_1449 (protein)
# chain: ELEKVMDRLVILSELKRAALLLVEGKEEEAEEELKEARELAEEAGDEEALEKLKEIEELAKENTPEAKKRLKELARELQKEAGKLAEEAEKLILERAKKE
# B14: traf2_out_17_35_1753 (protein)
# chain: MTPIEKERKIASELADEILAEVDKRNAEMEKILAETGDKQAVADYVKAYLAKHGETGELVDTLEEVLATKDDEELMATARAVVRRAAGRLMGPKYAERLK
# B15: traf2_out_11_169_837 (protein)
# chain: EEREKNRKINDFALELNDEAKKKLKEFAKELAKKAGLDVEEIDKIFEENKGKSFSYIAGKLIEYFKKKGKEDEAKAVEEKYEELKEEVNKKATAFIKELE
# B16: traf2_out_18_167_1872 (protein)
# chain: SAELKKKREELTDELVRYSTIRRALLLILEALKRSREEARRLLEEYVEKYPDSEVLREALEVFETKSDEEFRKFLEEKAEELQKEANEKYKELEELEKEE
# B17: traf2_out_19_16_1968 (protein)
# chain: MEEELERIRRELDEIERRVRELEKYFEENKETLTREELSDLLVELSELKRRAQELRERLLELEGVDEEERERLIRRAEEIIERAQRLMNEVVEKYLELLK
# B18: traf2_out_3_77_2277 (protein)
# chain: SSEAEAAAAALDEATTEAIASLAVLAINDPANAAKYREMAAKLHRAVAIAKEAGAEKEFLPLVKKLKEALDALNKGDKAAEAEIKKLLKEIEKKAEELKK
# B19: traf2_out_18_117_1778 (protein)
# chain: SRREELIERLKELAERLEEAASRLGKVFLENYEKLTPEEKSEIMDVLAELTEVRREAQLLIIKIENGEIPVEEAEERLKELEKRAEKAIEKAEKRIKEIE
# B20: traf2_out_17_162_1491 (protein)
# chain: SELEERKKELEKKLEELEKKLKELKKKLEKLEELSKEELTDLLVEVSELKREARELAEELKKLKEETGDPELEKLIKKAEELAEEAQKIANKIYKKLEEK
# B21: traf2_out_17_162_1605 (protein)
# chain: AELEATLAALEALLAELEAELKRLKEKLKRIKELSKEELSDLLVEASEARRRAREALEELERLRDRLPPELYAALTARFQALADEFQRIANKFYEELEKK
# B22: traf2_out_11_155_746 (protein)
# chain: EKRLKLLQEMNDKIMELFDKARKEADAIVEEAAKKHPEHAEKLKKLKEETKGFSYRSYILSYIEKFEELGLKEEAAKLKKLLEETQKKANEIVQKTEKEL
# B23: traf2_out_11_104_633 (protein)
# chain: LTREQAREFNDFAMAKEDEARAVAAALAAALAAAGETEAAARLNAALAHPGAGISTFRNLIEDLLPTLSPEAAAQARAAIERLEALQKEVSKKLNELEKK
# B24: traf2_out_17_178_1734 (protein)
# chain: SKEEILKEISELADELLDVTRKAMEELKAILEKEGVLTPELRARLDEVAKTGNLYAFEEVADEAIALSSKKEEVTALKEETVAKMRELNKKIQEAVEKLE
# B25: traf2_out_15_180_1330 (protein)
# chain: MTEEELKRRIALASEAADRVQDHLAALLAAHPELTPEERAALRALARSVLTLYWNGEWEEAEAAVAAFEARVDPRTAAVARELAAFTREVVEAAKAELAA
# B26: traf2_out_17_178_1666 (protein)
# chain: TKEEKRKEISEATDKLIDLAEEAAARLLEIARREGFWSPEELAEIEAARRRGSASMVRALMERAIPKSPSAAELAALLAEFDAKVRELSKKIAEAYEKYE
# B27: traf2_out_18_3_1939 (protein)
# chain: KEEELKKVSEEIDKIIDEVTKKAKESLKELKKEHPEFKERAEKLEKDLEAGAGPFGILEELAELYKEAGDEKKAKEIEEFLKKKKKELQKLVDEYEKLRK
# B28: traf2_out_17_162_1618 (protein)
# chain: MSIEEKLEEFKKLLEELRKEKEELEEKLKNIEKLSKEELTDLLVEASEARRKALEAIEELKKLKDEIPEEEYEKLVKEFEELAEKFQEIANKFYKELEKK
# B29: traf2_out_8_174_2565 (protein)
# chain: GELENLKKAANVGLEFEKKIEELKKEIEELRKKSLEEALKYAEEKGKELKEELEKKKEEAKKTESPETQKLIERELNSAKQRVDNLIEGLKLRVAAEKAA
# Molecular target: T1, TRAF2, Q12933
# Experiment: median log2 fold change of GCK-ALFA target abundance (FLAG IP / Myc IP barcode read proportion) (log2 ratio); each designed protein is fused to an ALFA-tag nanobody in HEK293 cells to bring the named protein to FLAG-tagged glucokinase (GCK); Myc marks an untargeted standard; higher = target protein stabilised (more abundant)
# Conditions: target protein: 3xFLAG-MCP-GCK-ALFA reporter; HEK293 landing pad (RPLP)
# Summary of the method: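 The readout is target abundance, the per-binder median log2 ratio of FLAG to Myc barcode read proportions. It came from HEK293 landing-pad cells carrying a recombined ALFA-nanobody-fused binder library, induced with 2 μg mL^−1 doxycycline and transfected with a plasmid for a FLAG-tagged target and a Myc-tagged standard. After 48 h, lysates were immunoprecipitated with anti-FLAG and anti-Myc, and circular RNA barcodes were reverse transcribed, amplified and sequenced. Each barcode needed a proportion of at least 10^−7 in both replicates and each binder at least 3 barcodes per replicate, a pseudocount of 10^−6 was added, and the replicates were pooled.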
row,Binder,median log2 fold change
1,B1,-0.0228
2,B2,0.0813
3,B3,0.255
4,B4,0.267
5,B5,0.243
6,B6,0.136
7,B7,0.166
8,B8,0.224
9,B9,0.0651
10,B10,0.133
11,B11,0.339
12,B12,0.8
13,B13,-0.242
14,B14,0.184
15,B15,-0.217
16,B16,0.106
17,B17,0.109
18,B18,0.291
19,B19,0.313
20,B20,-0.178
21,B21,-0.112
22,B22,-0.0198
23,B23,0.281
24,B24,0.411
25,B25,0.153
26,B26,0.000244
27,B27,0.169
28,B28,0.0164
29,B29,0.224
